This is one part of the list. Single values are uncertain, as repeats are few or missing.

Among the test systems are MZ2-MEL; MeWo; RPMI7951; RVH-421; SkMel28; SkMel2; SkMel30; SkMel5; UACC257; UACC62.
Holding throughout (test): cell count relative to DMSO control; melanoma cells; higher = more viable cells
What all share (details): library dose: low library concentration; 72 h
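Further: cell number obtained by counting DAPI-stained nuclei in high-throughput microscope images with image analysis software, screen run in 1,536-well plates.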

Take `CC(C)C[C@H](NC(=O)[C@H](Cc1ccccc1)NC(=O)c1cnccn1)B(O)O` [Bortezomib] + NC(=O)Nc1cc(-c2cccc(F)c2)sc1C(=O)N[C@H]1CCCNC1 [AZD7762] (first compound 0.001 µM, partner dose 0.02 µM): the cell count with MZ2-MEL amounted to 103%; in the assay with MeWo, 97.3%; in the assay with RPMI7951 it was 67.8%; in the assay with RVH-421 it was 75.1%; in the assay on SkMel28 it was 102%; in the assay with SkMel2, 103%. For the same molecule, the cell count with SkMel30 was 113%; in the assay with SkMel5, 109%; in the assay on UACC257, 82.7%; in the assay on UACC62, 101%.
Take `COc1ccc(C2=N[C@@H](c3ccc(Cl)cc3)[C@@H](c3ccc(Cl)cc3)N2C(=O)N2CCNC(=O)C2)c(OC(C)C)c1` [Nutlin-3] + CO[C@@H]1[C@H](N(C)C(=O)c2ccccc2)C[C@H]2O[C@]1(C)n1c3ccccc3c3c4c(c5c6ccccc6n2c5c31)C(=O)NC4 [Midostaurin] (first compound 0.1 µM, partner dose 0.08 µM): the cell count in the assay on MZ2-MEL worked out at 93.8%; in the assay on MeWo it was 92.3%; with RPMI7951 it was 97.2%; with RVH-421, 71.3%; in the assay with SkMel28 it was 92.6%; in the assay on SkMel2, 87%. Further, the cell count came out at 106% in the assay on SkMel30, 89.6% in the assay with SkMel5, 90.4% in the assay with UACC257 and 82.8% in the assay with UACC62.
`COc1ccc(C2=N[C@@H](c3ccc(Cl)cc3)[C@@H](c3ccc(Cl)cc3)N2C(=O)N2CCNC(=O)C2)c(OC(C)C)c1` [Nutlin-3] + Cc1cc(N2CCOCC2)cc2[nH]c(-c3c(NC[C@@H](O)c4cccc(Cl)c4)cc[nH]c3=O)nc12 [BMS536924] (first compound 0.1 µM, partner dose 0.2 µM): the cell count with MZ2-MEL worked out at 99.1%; in the assay on MeWo, 95.1%; in the assay with RPMI7951 it was 120%; in the assay on RVH-421 it was 109%; in the assay on SkMel28 it was 102%; in the assay with SkMel2, 74.1%. The cell count with SkMel30 came out at 74%; in the assay on SkMel5, 91%; with UACC257, 80.1%; with UACC62 it was 94.2%.
Consider `Cc1cn(-c2cc(NC(=O)c3ccc(C)c(Nc4nccc(-c5cccnc5)n4)c3)cc(C(F)(F)F)c2)cn1` [nilotinib] + Cn1cc(/C=C2\C(=O)Nc3cccnc32)c2ccccc21 [GW441756] (first compound 0.2 µM, partner dose 0.4 µM), for which the cell count in the assay on MZ2-MEL worked out at 91.6%; in the assay on MeWo, 107%; in the assay on RPMI7951 it was 102%; in the assay on RVH-421, 290%; with SkMel28, 85.7%; with SkMel2, 96.8%. Further, the cell count in the assay with SkMel30 amounted to 106%; in the assay on SkMel5, 76.6%; in the assay with UACC257 it was 76.9%; with UACC62, 96.7%.
Consider `CC(C)C[C@H](NC(=O)[C@H](Cc1ccccc1)NC(=O)c1cnccn1)B(O)O` [Bortezomib] + CN(C)S(=O)(=O)c1ccc2c(c1)/C(=C/c1cc3c([nH]1)CCCC3)C(=O)N2 [SU6656] (first compound 0.001 µM, partner dose 0.4 µM), for which the cell count in the assay on MZ2-MEL amounted to 88.4%; in the assay on MeWo, 94.6%; in the assay on RPMI7951, 85.6%; in the assay with RVH-421, 92.5%; with SkMel28 it was 86.6%; with SkMel2 it was 111%. The cell count with SkMel30 is 124%; with SkMel5 it was 86.5%; with UACC257, 66.8%; in the assay with UACC62, 56.1%.
Consider `COc1ccc(C2=N[C@@H](c3ccc(Cl)cc3)[C@@H](c3ccc(Cl)cc3)N2C(=O)N2CCNC(=O)C2)c(OC(C)C)c1` [Nutlin-3] + O=C(O)C(=O)Nc1sc2c(c1C(=O)O)CCNC2 [TCS401] (first compound 0.1 µM, partner dose 1.66667 µM), for which the cell count in the assay on MZ2-MEL is 100%; in the assay with MeWo, 90.9%; in the assay on RPMI7951 it was 106%; in the assay with RVH-421 it was 73.3%; in the assay with SkMel28, 87.8%; in the assay on SkMel2 it was 89.3%. Further, the cell count in the assay with SkMel30 came to 106%; in the assay on SkMel5, 80.3%; with UACC257, 95.4%; with UACC62, 92.9%.
Consider `CC(C)C[C@H](NC(=O)[C@H](Cc1ccccc1)NC(=O)c1cnccn1)B(O)O` [Bortezomib] + Oc1nc(-c2ccc(C(F)(F)F)cc2)nc2c1CSCC2 [XAV939] (first compound 0.001 µM, partner dose 2 µM), for which the cell count turned out to be 99.5% in the assay with MZ2-MEL; 111% in the assay on MeWo; 85.2% with RPMI7951; 76.9% in the assay on RVH-421; 92.9% in the assay on SkMel28; 106% in the assay on SkMel2. Also, the cell count in the assay with SkMel30 is 105%; with SkMel5 it was 94.2%; in the assay with UACC257, 104%; with UACC62 it was 93.9%.
On to `Cn1c(=O)n(-c2ccc(C(C)(C)C#N)cc2)c2c3cc(-c4cnc5ccccc5c4)ccc3ncc21` + O=C(O)c1ccc(-c2c[nH]c3ncc(-c4ccccc4)cc23)cc1C1CCCC1 [GSK650394] (first compound 0.004 µM, partner dose 0.16 µM), for which the cell count came out at 98.4% in the assay with MZ2-MEL; 79.3% with MeWo; 90.3% in the assay on RPMI7951; 97.9% in the assay on RVH-421; 93.9% with SkMel28; 98% in the assay with SkMel2. For the same molecule, the cell count in the assay with SkMel30 turned out to be 92.7%; in the assay with SkMel5, 109%; with UACC257, 87.5%; with UACC62, 69.9%.
With `COc1ccc(C2=N[C@@H](c3ccc(Cl)cc3)[C@@H](c3ccc(Cl)cc3)N2C(=O)N2CCNC(=O)C2)c(OC(C)C)c1` [Nutlin-3] + COc1ccc(-c2ccc3c(N4CCOCC4)nc(N4C[C@@H](C)O[C@@H](C)C4)nc3n2)cc1CO [KU0063794] (first compound 0.1 µM, partner dose 0.02 µM), the cell count in the assay on MZ2-MEL is 94.3%; in the assay on MeWo, 104%; with RPMI7951 it was 88.1%; in the assay with RVH-421 it was 85.1%; in the assay on SkMel28, 94.4%; in the assay with SkMel2, 86%. In addition, the cell count in the assay on SkMel30 was determined as 72.2%; with SkMel5 it was 92.5%; with UACC257, 71.2%; with UACC62, 83.8%.
With `Cn1c(=O)n(-c2ccc(C(C)(C)C#N)cc2)c2c3cc(-c4cnc5ccccc5c4)ccc3ncc21` + O=C(Nc1ccccc1)c1cc([N+](=O)[O-])ccc1Cl [GW9662] (first compound 0.004 µM, partner dose 2 µM), the cell count was found to be 99.8% with MZ2-MEL; 91.4% in the assay with MeWo; 124% in the assay on RPMI7951; 102% with RVH-421; 92% in the assay on SkMel28; 87.1% with SkMel2. In addition, the cell count turned out to be 101% in the assay on SkMel30, 114% in the assay with SkMel5, 115% in the assay on UACC257 and 89.8% with UACC62.
Turning to `Cc1cn(-c2cc(NC(=O)c3ccc(C)c(Nc4nccc(-c5cccnc5)n4)c3)cc(C(F)(F)F)c2)cn1` [nilotinib] + CN(C)S(=O)(=O)c1ccc2c(c1)/C(=C/c1cc3c([nH]1)CCCC3)C(=O)N2 [SU6656] (first compound 0.2 µM, partner dose 0.4 µM), the cell count was 102% with MZ2-MEL; 100% in the assay on MeWo; 95.2% in the assay on RPMI7951; 82.4% with RVH-421; 89.2% in the assay on SkMel28; 105% in the assay with SkMel2. Moreover, the cell count is 95.5% in the assay with SkMel30, 94.4% in the assay with SkMel5, 93.1% in the assay with UACC257 and 78.8% with UACC62.
As for `Cn1c(=O)n(-c2ccc(C(C)(C)C#N)cc2)c2c3cc(-c4cnc5ccccc5c4)ccc3ncc21` + CN(C)S(=O)(=O)c1ccc2c(c1)/C(=C/c1cc3c([nH]1)CCCC3)C(=O)N2 [SU6656] (first compound 0.004 µM, partner dose 0.4 µM), the cell count with MZ2-MEL was determined as 100%; with MeWo, 96.4%; in the assay with RPMI7951 it was 113%; in the assay with RVH-421 it was 102%; with SkMel28 it was 78.3%; with SkMel2, 97.7%. In addition, the cell count was 97.7% with SkMel30, 107% with SkMel5, 84.5% in the assay with UACC257 and 87.6% in the assay with UACC62.
In the case of `Cc1cc(Nc2cc(N3CCN(C)CC3)nc(/C=C/c3ccccc3)n2)n[nH]1` + O=S(=O)(c1ccccc1)N(CC(F)(F)F)c1ccc(C(O)(C(F)(F)F)C(F)(F)F)cc1 [T0901317] (first compound 0.04 µM, partner dose 1.4 µM), the cell count is 97.2% in the assay on MZ2-MEL; 88.9% in the assay on MeWo; 113% with RPMI7951; 127% in the assay with RVH-421; 85.2% in the assay on SkMel28; 103% in the assay on SkMel2. For the same molecule, the cell count with SkMel30 is 77.6%; in the assay on SkMel5, 91.1%; with UACC257 it was 77.8%; in the assay with UACC62, 81.9%.
As for `Cc1cn(-c2cc(NC(=O)c3ccc(C)c(Nc4nccc(-c5cccnc5)n4)c3)cc(C(F)(F)F)c2)cn1` [nilotinib] + O=c1cc(-c2cccc3c2Sc2ccccc2S3)oc(N2CCOCC2)c1 [KU55933] (first compound 0.2 µM, partner dose 1 µM), the cell count with MZ2-MEL amounted to 102%; in the assay on MeWo, 104%; with RPMI7951 it was 82.4%; with RVH-421, 115%; in the assay with SkMel28, 98.9%; in the assay with SkMel2, 98.3%. The cell count in the assay on SkMel30 stood at 108%; in the assay with SkMel5 it was 93.5%; with UACC257 it was 91.9%; with UACC62, 79.6%.
On to `Cc1cc(Nc2cc(N3CCN(C)CC3)nc(/C=C/c3ccccc3)n2)n[nH]1` + CCc1ccc(CCOc2ccc(CC3SC(=O)NC3=O)cc2)nc1 [pioglitazone] (first compound 0.04 µM, partner dose 2 µM), for which the cell count worked out at 101% in the assay with MZ2-MEL; 115% with MeWo; 91.3% in the assay on RPMI7951; 77.6% in the assay on RVH-421; 87.4% in the assay on SkMel28; 101% with SkMel2. The cell count with SkMel30 was found to be 98.2%; with SkMel5 it was 92.5%; in the assay on UACC257, 101%; in the assay on UACC62, 97.5%.
